{
  "source": "PubChem BioAssay AID652104",
  "about": "(National Center for Advancing Translational Sciences (NCATS), 2013)",
  "note": "The campaign covered roughly 410,000 compounds. About 7,200 (1.8%) were called active. Inconclusive means that the source gave no clear call. Such entries were picked first, then a sample of the others. Calls come from the whole dose curve; as a rule, active = well fitted activation curve with a large enough effect; inconclusive = small, poorly fitted or top-dose-only effect, or another doubt; inactive = no such curve, though single readings can be large or run the other way. No potency is given beside an inconclusive call; the fits are too rough. Potency is the fitted concentration of half-maximal effect; tags give direction and shape of the fitted curve.",
  "data": [
    {"assay": "qHTS of TDP-43 Inhibitors; note: nearly all actives have a fitted effect of over 50% in size; for growth rescue (activation): % of control where 0% means no effect", "details": "TDP-43 expressing yeast growth rescue, BacTiter-Glo, 24 h; growth rescue (activation): at 46.1 µM (top of the series) unless noted", "in_short": "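Readout is BacTiter-Glo luminescence of cell growth, so inhibitors register as activators. TDP-43-expressing yeast at OD600=0.02 in galactose medium, after raffinose pregrowth to mid-log, were incubated with compound for 24 hr at 30 deg C.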", "values": [
      {"smiles": "O=C(Nc1nccs1)c1ccc(Cl)s1", "Potency": "inconclusive [activator, single point]"},
      {"smiles": "Clc1ncnc2scc(-c3ccccc3)c12", "Potency": "inactive"},
      {"smiles": "COc1ccc(/C=C/C(=O)c2ccccc2)c(OC)c1", "Potency": "inconclusive [activator, partial curve]"},
      {"smiles": "O=C(Nc1ccc(Cl)c(C(F)(F)F)c1)c1ccncc1", "Potency": "active: 10 µM"},
      {"smiles": "COc1ccc(-c2cc(C(=O)Oc3ccc(C#N)cc3)no2)cc1", "Potency": "inactive"},
      {"smiles": "Cc1cccc(NC(=O)C(=O)NCC2CCCN2S(=O)(=O)c2cccs2)c1C", "note": "(centres undefined)", "Potency": "inactive"},
      {"smiles": "Oc1ccc(-c2nc3c4c(ncn3n2)-c2ccccc2CC42CCCC2)cc1", "Potency": "inconclusive [activator, partial curve]"},
      {"smiles": "CCC(=O)NC(c1cccs1)c1cc([N+](=O)[O-])c2cccnc2c1O", "note": "(centres undefined)", "Potency": "inconclusive [activator, partial curve]"},
      {"smiles": "COc1cccc(CNC(=O)c2ccc3nc(CCc4ccccc4)oc3c2)c1OC", "Potency": "inactive"},
      {"smiles": "CC1(C(=O)NS(=O)(=O)c2cccc(F)c2)CCN1C(=O)CCC1CCCC1", "note": "(centres undefined)", "Potency": "inconclusive [activator, full curve, poor fit]"},
      {"smiles": "Cc1ccsc1C(=O)OCc1cc(=O)n2ccsc2n1", "Potency": "inconclusive [activator, partial curve, poor fit]"},
      {"smiles": "COc1ccc(CC(=O)O/N=C(\\N)c2ccccn2)cc1", "Potency": "inactive"},
      {"smiles": "Cc1ccc(S(=O)(=O)Nc2ccccc2N=Cc2ccc([N+](=O)[O-])cc2[N+](=O)[O-])cc1", "Potency": "inconclusive [activator, partial curve]"},
      {"smiles": "CC(=O)N1c2ccc(S(=O)(=O)N(C)CC(=O)NC(C)c3ccccc3)cc2CC1C", "note": "(centres undefined)", "Potency": "inactive"},
      {"smiles": "Cc1ccc(-c2nc(CS(=O)(=O)CC(=O)N3CCN(c4ccccc4)CC3)c(C)o2)cc1", "Potency": "inconclusive [activator, single point]"},
      {"smiles": "CCOC(=O)N1CCN(C(=O)C2CCN(c3nnc(-n4cccc4)s3)CC2)CC1", "Potency": "inconclusive [activator, partial curve]"},
      {"smiles": "Cc1cc(-c2ccc(C)c(S(=O)(=O)NCCc3ccco3)c2)on1", "Potency": "inactive"},
      {"smiles": "C[C@H](CO)N1C[C@H](C)[C@H](CN(C)C(=O)Nc2ccc(-c3cccs3)cc2)OCc2cnnn2CCCC1=O", "Potency": "inconclusive [activator, full curve, poor fit]"},
      {"smiles": "CCC(C(=O)Nc1ccccc1C(=O)N1CCCC1)N1C(=O)c2ccccc2C1=O", "note": "(centres undefined)", "Potency": "inactive"},
      {"smiles": "O=C1c2ccccc2C(=O)N1CCCCSc1nnnn1-c1ccccc1", "Potency": "inconclusive [activator, single point]"},
      {"smiles": "N/C(=N\\OC(=O)COc1cc(Cl)c(Cl)cc1Cl)c1ccccn1", "Potency": "inconclusive [activator, single point]"},
      {"smiles": "CCOC(=O)c1c(NC(=S)N2CCOCC2)sc2c1CCN(C(=O)OCC)C2", "Potency": "inconclusive [activator, single point]"},
      {"smiles": "CCCN1CCN(CCNC(=O)Nc2cc(Cl)c(OC)cc2OC)CC1", "Potency": "inactive"},
      {"smiles": "CCCOc1ccc(F)cc1-c1cc(C(=O)NCc2cc(OC)cc(OC)c2)[nH]n1", "Potency": "inconclusive [activator, single point]"},
      {"smiles": "Cc1cc(C)nc(NC(=O)Cc2ccc([N+](=O)[O-])cc2)c1", "Potency": "inactive"},
      {"smiles": "COc1cccc(CNC(=O)C2CCCN(S(=O)(=O)c3ccc4c(ccn4C)c3)C2)c1OC", "note": "(centres undefined)", "Potency": "inactive"},
      {"smiles": "Cc1cc(NC(=O)C(C)SCC(=O)Nc2ccc(Br)cc2Br)no1", "note": "(centres undefined)", "Potency": "inconclusive [activator, single point]"},
      {"smiles": "O=C(Cn1c(=O)n(CCCS(=O)(=O)C2CCCCC2)c(=O)c2ccccc21)Nc1ccccc1F", "Potency": "inactive"},
      {"smiles": "Oc1ccc(Cc2ccc(Cl)cc2)c(O)c1", "Potency": "inconclusive [activator, single point]"},
      {"smiles": "CC(=O)c1ccc(NC(=O)c2ccn(C(=O)OCC(C)C)n2)cc1", "Potency": "inconclusive [activator, partial curve]"},
      {"smiles": "CCN(c1ccccc1)S(=O)(=O)c1ccc(C(=O)Nc2nnc(CSC)o2)cc1", "Potency": "inconclusive [activator, partial curve]"},
      {"smiles": "COc1ccc(-n2ncc(Cl)c(Cl)c2=O)cc1", "Potency": "inconclusive [activator, single point]"},
      {"smiles": "Cc1cc(C)cc(N=c2c([N+](=O)[O-])nn(-c3ccc(Cl)cc3)n2O)c1", "Potency": "inconclusive [activator, partial curve]"},
      {"smiles": "Cc1cccc(-c2nc3c4ccccc4n(CC(=O)Nc4cc(F)ccc4F)c(=O)n3n2)c1", "Potency": "inconclusive [activator, partial curve]"},
      {"smiles": "CC(C)C[C@@H]1Cc2[nH][nH]c(=O)c2[C@H](c2ccc(Cl)cc2)O1", "Potency": "inconclusive [activator, partial curve, poor fit]"},
      {"smiles": "COCCNC(=S)Nc1ccc(N2CCOCC2)c(S(=O)(=O)Nc2ccc(Cl)cc2)c1", "growth rescue (activation)": "inconclusive: -92.9% [activator]"},
      {"smiles": "COc1ccc(NC(=O)C[C@H]2C(=O)N(c3ccc(OC)cc3)C[C@@H]2c2ccc(Br)cc2)cc1", "Potency": "inconclusive [activator, single point]"},
      {"smiles": "CCc1nc2ccc(C(=O)Nc3cc(-c4ccccc4)ccc3OC)cn2c1N(C)C(=O)c1cccc(OC)c1", "Potency": "inconclusive [activator, single point]"},
      {"smiles": "COc1ccc(-c2oc3c(c2C#CCCCCO)C(OCCO)CC3)cc1", "note": "(centres undefined)", "Potency": "inactive"},
      {"smiles": "O=C(Nc1cccc(C(=O)N2CCCc3ccccc32)c1)c1ccccc1", "Potency": "inconclusive [activator, partial curve]"},
      {"smiles": "COc1cc(NC(=O)C(c2ccccc2)c2ccccc2)c(C(=O)O)cc1OC", "Potency": "active: 22.4 µM"},
      {"smiles": "Cc1oc(-c2cccc(Cl)c2)nc1CN1CCC(C(=O)NCc2ccc(F)cc2)CC1", "Potency": "inactive"},
      {"smiles": "CN(C)C(=O)c1ccc(NC(=O)CSc2nnc(-c3ccc4c(c3)OCO4)o2)cc1", "Potency": "inconclusive [activator, full curve, poor fit]"},
      {"smiles": "Cc1cnc(CNC(=O)c2csc([C@@H]3C[C@H](O)[C@@H](CO)O3)n2)cn1", "Potency": "inactive"},
      {"smiles": "COc1ccc(-c2cc(C(=O)N3CC(C)CC(C)C3)c3ccccc3n2)cc1OC", "note": "(centres undefined)", "Potency": "inconclusive [activator, partial curve]"},
      {"smiles": "CC(C)(C)OC(=O)c1c(N)n(CCCN2CCCC2=O)c2nc3ccccc3nc12", "Potency": "inconclusive [activator, single point]"},
      {"smiles": "Cc1ccccc1C(=O)NC(C)C(c1cccs1)N1CCOCC1", "note": "(centres undefined)", "Potency": "inconclusive [activator, full curve, poor fit]"},
      {"smiles": "COc1ccc(C2C(C(=O)N3CCN(c4ccccc4F)CC3)c3ccccc3C(=O)N2C)cc1", "note": "(centres undefined)", "Potency": "inconclusive [activator, single point]"},
      {"smiles": "O=C(c1ccc(Br)cc1)N1CCC(c2nc3ccccc3s2)CC1", "Potency": "inactive"},
      {"smiles": "O=C(Nc1nc(-c2ccccc2)ns1)c1ccncc1", "Potency": "inconclusive [activator, single point]"},
      {"smiles": "O=C(CSc1ncccn1)NCc1ccc2c(c1)OCO2", "Potency": "inconclusive [activator, single point]"},
      {"smiles": "COc1cccc(COc2ccc3c(C)cc(=O)oc3c2)c1", "Potency": "inconclusive [activator, single point]"},
      {"smiles": "O=C(NC1CCCc2c1cnn2-c1ccccc1F)c1ccncc1", "note": "(centres undefined)", "Potency": "inconclusive [activator, full curve, poor fit]"},
      {"smiles": "Cn1c(=O)n(Cc2ccccc2Br)c2ccccc21", "Potency": "inconclusive [activator, single point]"},
      {"smiles": "O=C(CCSc1ccccc1)OCn1nnc2ccccc2c1=O", "Potency": "inactive"},
      {"smiles": "CCOc1cc(/C=N/O)ccc1OCc1ccc(C)cc1", "Potency": "inconclusive [activator, partial curve]"},
      {"smiles": "O=C(N/N=C/c1ccc(Br)s1)c1ccccn1", "Potency": "inconclusive [activator, partial curve]"},
      {"smiles": "CCOc1ccccc1NC(=O)CSc1nc2cc(OC)c(OC)cc2c2nc(CCn3c(C)nc4ccccc43)nn12", "Potency": "inactive"},
      {"smiles": "CCOC(=O)c1ccc(N2C(=O)c3n[nH]c(-c4ccco4)c3C2c2cccc([N+](=O)[O-])c2)cc1", "note": "(centres undefined)", "Potency": "inactive"},
      {"smiles": "Cc1cc(NC(=O)COC(=O)C2CC2)ccc1Br", "Potency": "inconclusive [activator, single point]"},
      {"smiles": "COc1ccc2c(CC#N)c[nH]c2c1", "Potency": "inconclusive [activator, single point]"},
      {"smiles": "CN(C)c1ccc2c(=O)c3ccccc3oc2n1", "Potency": "active: 15.8 µM"},
      {"smiles": "Cc1ccsc1C=C1C(=O)c2ccccc2C1=O", "Potency": "inconclusive [activator, partial curve, poor fit]"},
      {"smiles": "O=C(O)c1ccccc1Nc1cccc(OCc2ccc3ccccc3n2)c1", "Potency": "inactive"},
      {"smiles": "Cc1cccc(CSc2ncc(Cl)c(C(=O)Nc3nnc(C)s3)n2)c1", "Potency": "inactive"},
      {"smiles": "CC1(C(=O)NS(=O)(=O)c2cccs2)CCN1C(=O)CC1CC1", "note": "(centres undefined)", "Potency": "inconclusive [activator, partial curve, poor fit]"},
      {"smiles": "Cc1cc(C(=O)COC(=O)c2ccncc2)c(C)n1CCc1ccc(F)cc1", "Potency": "inconclusive [activator, full curve, poor fit]"},
      {"smiles": "O=C(Nc1cc(Cl)ccc1Cl)N1CCCC1", "Potency": "inconclusive [activator, single point]"},
      {"smiles": "O=C(NC1CCCCC1)NS(=O)(=O)c1ccc2c(c1)CCC2", "Potency": "inconclusive [activator, single point]"}
    ]}
  ]
}
